# Assay results reported in PubChem BioAssay AID1460 (National Center for Advancing Translational Sciences (NCATS), 2008).
# About 5,800 (2.1%) of roughly 270,000 compounds were called active. Inconclusive results, whose numbers are uncertain, are shown with a selection of clear calls. Calls follow the shape of the dose curve; as a rule, active = well fitted inhibition curve with a large enough effect; inconclusive = small, poorly fitted or top-dose-only effect; inactive = flat fitted curve, though single readings scatter. Potencies beside an inconclusive call are fits to weak or partial responses and may not hold up.
# Molecular target: Microtubule-associated protein tau (Homo sapiens) (UniProt P10636)
# Assay: qHTS for Inhibitors of Tau Fibril Formation, Thioflavin T Binding; also: nearly all actives have a fitted effect of over 55% in size
# Settings: recombinant tau K18 P301L, heparin-induced fibrillization, ThT fluorescence; series mostly up to 57.4 µM; activity, negative = inhibition: at the top concentration
# Procedure, shortened: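 Using a mix of unlabeled (15 uM) and Alexa 594-labeled (0.24 uM) tau K18 P301L, heparin-triggered fibrillization over 6 hr at 37 C was scored by ThT fluorescence.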
# % is scaled to controls: 0 for no effect and ±100 for the full control effect; potency is read from the fitted curve at half-maximal effect; tags tell the direction and shape of the fitted curve.
# Sequence of UniProt P10636 (P10636 whole entry, looked up): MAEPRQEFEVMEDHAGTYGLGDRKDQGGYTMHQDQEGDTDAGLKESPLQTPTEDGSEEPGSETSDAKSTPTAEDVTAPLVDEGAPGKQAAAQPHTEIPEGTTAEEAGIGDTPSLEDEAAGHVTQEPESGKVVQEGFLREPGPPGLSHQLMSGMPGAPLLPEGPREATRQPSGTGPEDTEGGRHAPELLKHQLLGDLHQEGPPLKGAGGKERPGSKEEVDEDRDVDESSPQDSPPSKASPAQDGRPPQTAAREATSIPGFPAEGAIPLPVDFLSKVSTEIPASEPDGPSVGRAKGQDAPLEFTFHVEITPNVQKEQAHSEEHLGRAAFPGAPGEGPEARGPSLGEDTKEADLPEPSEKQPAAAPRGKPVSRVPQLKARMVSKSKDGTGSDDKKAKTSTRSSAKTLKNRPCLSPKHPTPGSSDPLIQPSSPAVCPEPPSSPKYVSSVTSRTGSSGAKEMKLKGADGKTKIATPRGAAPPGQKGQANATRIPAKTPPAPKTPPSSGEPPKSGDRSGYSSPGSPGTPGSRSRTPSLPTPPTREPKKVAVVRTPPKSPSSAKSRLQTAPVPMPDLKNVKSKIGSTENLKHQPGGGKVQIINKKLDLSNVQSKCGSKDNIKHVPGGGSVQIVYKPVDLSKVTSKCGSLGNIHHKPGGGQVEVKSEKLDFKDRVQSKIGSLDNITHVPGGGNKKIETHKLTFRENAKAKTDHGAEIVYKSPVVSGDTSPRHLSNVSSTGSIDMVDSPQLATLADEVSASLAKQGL
Structure (SMILES),Potency,"activity, negative = inhibition"
O=C(COc1ccccc1)Nc1cc(C(F)(F)F)ccc1N1CCCC1,"inconclusive: 25.1 µM [inhibitor, single point]",–
Clc1nc2ccccc2cc1/C=N/Nc1nc2ccccc2[nH]1,"inconclusive: 3.55 µM [inhibitor, full curve]",–
Clc1ccccc1Sc1ccc(-c2ccccn2)s1,"inconclusive: 39.8 µM [inhibitor, single point]",–
COc1ccc(OC)c2c(C)cc(N3CCN(C(=O)c4ccc(F)cc4)CC3)nc12,"inconclusive: 20 µM [inhibitor, partial curve]",–
CN(C)CCCn1c(SCC(=O)Nc2nc(-c3cccc(Br)c3)cs2)nc2ccccc2c1=O,"inconclusive: 39.8 µM [inhibitor, single point]",–
O=C(Cn1c(=O)n(Cc2ccco2)c(=O)c2c3c(sc21)CCCCC3)c1ccccc1,"inconclusive: 31.6 µM [inhibitor, single point]",–
CCOc1ccc(/C=C/c2nc(C#N)c(N3CCN(CC)CC3)o2)cc1,"inconclusive: 25.1 µM [inhibitor, partial curve]",–
COC(=O)c1ccccc1NC(=O)CN(C)S(=O)(=O)c1ccc(OC)c(C)c1,"inconclusive: 14.1 µM [inhibitor, single point]",–
C/C(=N\NC(=O)c1nn(C)c(C)c1Br)c1ccc(NC(=O)c2ccc(C)s2)cc1,"inconclusive: 0.316 µM [inhibitor, full curve, poor fit]",–
O=C1OC(/C=C/c2ccc(Cl)cc2)=NC/1=C/c1ccco1,"inconclusive: 15.8 µM [inhibitor, partial curve]",–
CC(Oc1ccccc1)C(=O)Nc1ccc(C(=O)OCc2cc(=O)n3nc(C(C)C)sc3n2)cc1 (configuration not stated),–,inactive: -11.2%
O=C(CSc1nc(O)cc(=O)n1-c1ccccc1)c1ccc(Br)cc1,"inconclusive: 15.8 µM [inhibitor, single point]",–
CCOC(=O)c1c(C)[nH]c2c1-c1ccccc1C(=O)C2=O,"inconclusive: 3.55 µM [inhibitor, full curve]",–
C/C(=N\NC(=O)c1ccccc1)c1ccc(N2CCCCC2)cc1,"inconclusive: 3.55 µM [inhibitor, partial curve]",–
CC(C)c1nc2sc3ccccc3c(=O)c2c(=O)n1Cc1ccccc1,"inconclusive: 6.31 µM [inhibitor, partial curve, poor fit]",–
CCN(CC)S(=O)(=O)c1ccc(NC(=O)Cn2ncc3c([nH]c4ccccc43)c2=O)cc1,–,inactive: 16.7%
O=C(Nc1ccc(Cl)cc1)C1c2cccc[n+]2CC(=O)N1Cc1ccc2c(c1)OCO2 (configuration not stated),"inconclusive: 20 µM [inhibitor, partial curve]",–
CCOc1cc(C(c2c(C)[nH]n(-c3ccccc3)c2=O)c2c(C)[nH]n(-c3ccccc3)c2=O)ccc1O,"inconclusive: 10 µM [inhibitor, partial curve]",–
Cc1ccc(-n2[nH]c(C)c(/C=N/n3c(C)nc4ccccc4c3=O)c2=O)cc1,active: 25.1 µM,–
O=C(CN1C(=O)C2(SCC(=O)N2c2ccc(F)c(F)c2)c2ccccc21)NCCc1ccccc1 (configuration not stated),–,inactive: 11.7%
COCCn1c(=O)[nH]c(=O)c2cc(C(=O)c3cc(OC)ccc3O)cnc21,"inconclusive: 35.5 µM [inhibitor, partial curve, poor fit]",–

Structure (SMILES),Potency,"activity, negative = inhibition"
C=CCNc1nc(Nc2ccc([N+](=O)[O-])cc2)nc(N2CCCC2)n1,"inconclusive: 15.8 µM [inhibitor, partial curve]",–
CCSC1=C(C#N)C(c2cccc(O)c2)CC(=O)N1 (configuration not stated),–,inactive: -4.24%
O=C1Nc2ccccc2/C1=N/N=C/c1ccc(-c2ccc([N+](=O)[O-])cc2)o1,active: 2.82 µM,–
COc1ccc(-c2noc(N3CCC(C(=O)Nc4cccc(C)c4C)CC3)n2)cc1,"inconclusive: 2 µM [inhibitor, full curve]",–
CCC(=O)N1c2ccccc2NC2=C(C(=O)CCC2)C1c1ccc(N(C)C)cc1 (configuration not stated),–,inactive: -10.2%
CCC(=O)Nc1ccc(N2CCN(Cc3ccccc3)CC2)cc1,–,inactive: -11.8%
COc1ccc(NC(=O)c2cc(Cl)ccc2NC(=O)c2ccco2)c(OC)c1,–,inactive: -5.53%
CC1(C)CC(=O)C2=C(C1)Nc1ccccc1N(C(=O)C1CC1)C2c1ccco1 (configuration not stated),"inconclusive: 14.1 µM [inhibitor, single point]",–
CN1CCN(c2ccc(NC(=O)c3sc4ccccc4c3Cl)cc2)CC1,active: 5.01 µM,–
CS(=O)c1nc(-c2ccc(Br)cc2)cc(-c2ccccc2)c1C#N (configuration not stated),"inconclusive: 15.8 µM [inhibitor, partial curve]",–
O=C(c1ccc2ccccc2n1)N1CCN(c2ccccc2O)CC1,–,inactive: -3.11%
O=[N+]([O-])c1ccc(Nc2cccc(F)c2)nc1,"inconclusive: 14.1 µM [inhibitor, partial curve]",–
O=C(CSc1nc2ccccc2o1)Nc1ccc(N2CCOCC2)cc1,"inconclusive: 12.6 µM [inhibitor, partial curve]",–
CC1=C(C(=O)OCc2ccccc2)C(c2ccoc2)C(C#N)=C(N)O1 (configuration not stated),"inconclusive: 22.4 µM [inhibitor, partial curve]",–
Cc1cc(/C=C2\SC(N)=NC2=O)c(C)n1-c1ccccc1,"inconclusive: 25.1 µM [inhibitor, partial curve]",–
Cc1ccc2nc(Cl)nc(-c3ccccc3)c2c1,"inconclusive: 0.224 µM [inhibitor, partial curve]",–
Cc1ccc2c(CC(=O)OCc3cc(=O)n4c(n3)sc3ccccc34)coc2c1,"inconclusive: 7.94 µM [inhibitor, partial curve]",–
O=C1CC(c2cccs2)Sc2nc3ccccc3n21 (configuration not stated),"inconclusive: 17.8 µM [inhibitor, partial curve, poor fit]",–
O=C(NCCO)C(O)C(O)C(=O)NCCO (configuration not stated),"inconclusive: 39.8 µM [inhibitor, single point]",–
CC1=NN(c2ccccc2)C(=O)/C1=C/c1cc(C)n(C2CC2)c1C,"inconclusive: 2.51 µM [inhibitor, full curve]",–
COc1ccc(S(=O)(=O)Cc2ccc(C(=O)N3CCN(c4ccc(Cl)cc4)CC3)o2)cc1,"inconclusive: 14.1 µM [inhibitor, partial curve]",–
